Assay results published in PMC4336329 (PLoS ONE, 2015).
Among all 310,000 compounds or so, about 14,000 (4.5%) showed an effect of 50% or more. The effect is printed as a negative number. This is one part of the list.

The compounds below were run against human ether-à-go-go-related gene (hERG) potassium channel (human, UniProt Q12809) (assay: primary screen, population patch clamp on CHO cells stably expressing hERG).
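Further: peak tail current of the secondary pulse compared with the same well before compound.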

Chain of human ether-à-go-go-related gene (hERG) potassium channel (Q12809 whole entry, looked up): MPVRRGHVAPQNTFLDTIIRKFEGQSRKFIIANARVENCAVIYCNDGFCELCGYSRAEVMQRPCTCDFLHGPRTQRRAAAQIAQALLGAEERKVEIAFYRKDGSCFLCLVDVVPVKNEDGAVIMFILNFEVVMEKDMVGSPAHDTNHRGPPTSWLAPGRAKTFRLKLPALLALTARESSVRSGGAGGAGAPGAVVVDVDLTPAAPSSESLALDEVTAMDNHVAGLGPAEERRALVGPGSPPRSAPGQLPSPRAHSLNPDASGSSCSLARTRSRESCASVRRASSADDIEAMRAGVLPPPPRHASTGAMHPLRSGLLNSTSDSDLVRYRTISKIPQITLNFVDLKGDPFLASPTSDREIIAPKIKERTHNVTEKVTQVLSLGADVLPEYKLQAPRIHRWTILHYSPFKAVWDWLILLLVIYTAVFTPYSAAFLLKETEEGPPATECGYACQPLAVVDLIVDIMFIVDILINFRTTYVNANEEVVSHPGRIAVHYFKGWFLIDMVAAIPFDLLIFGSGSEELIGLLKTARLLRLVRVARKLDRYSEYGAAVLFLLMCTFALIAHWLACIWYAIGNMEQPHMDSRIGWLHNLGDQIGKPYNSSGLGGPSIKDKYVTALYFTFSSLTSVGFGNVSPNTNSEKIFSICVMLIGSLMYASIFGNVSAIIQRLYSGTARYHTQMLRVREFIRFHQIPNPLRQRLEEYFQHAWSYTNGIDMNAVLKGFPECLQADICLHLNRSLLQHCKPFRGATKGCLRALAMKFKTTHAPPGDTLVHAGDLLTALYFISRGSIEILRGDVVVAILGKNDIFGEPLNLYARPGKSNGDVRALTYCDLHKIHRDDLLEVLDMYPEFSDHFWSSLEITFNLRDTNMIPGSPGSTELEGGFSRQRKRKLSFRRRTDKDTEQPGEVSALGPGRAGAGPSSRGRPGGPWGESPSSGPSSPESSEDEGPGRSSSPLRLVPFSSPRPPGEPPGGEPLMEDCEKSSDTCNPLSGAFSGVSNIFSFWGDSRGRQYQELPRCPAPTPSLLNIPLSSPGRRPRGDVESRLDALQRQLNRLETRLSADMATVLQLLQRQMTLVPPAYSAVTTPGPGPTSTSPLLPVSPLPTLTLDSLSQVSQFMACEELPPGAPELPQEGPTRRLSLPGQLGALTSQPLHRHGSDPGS

Compound	hERG current change (%, negative = inhibition) at 10uM [%]
CC(NC(=O)COc1ccc(Br)cc1)C(=O)O (stereo not drawn)	5.37
O=C(CSc1nccn1-c1ccc(F)cc1)Nc1ccc2c(c1)OCO2	-8.64
CC(C)Nc1nnc(SCC(=O)N2CCN(C(=O)c3ccco3)CC2)s1	-2.72
CC(C)(C)c1cc(Cl)ccc1OCCOCCN1CCCC1.O=C(O)C(=O)O	-45.8
Cc1cc(F)ccc1NC(=O)c1cnccn1	13
COc1ccc(C2CC(c3cccs3)=NN2C(=O)CCl)cc1OC (stereo not drawn)	-13.5
O=c1cc(N2CCCCCC2)[nH]c(=O)n1-c1ccccc1Cl	20.2
O=C(NC(=S)Nc1ccc(CN2CCOCC2)cc1)c1ccc2c(c1)OCCO2	-13.9
Oc1ccc(/C=N/Nc2ccc(C(F)(F)F)cn2)cc1	-12.4
CC1(C)Cc2c(cnn2-c2ccccc2)C(NC(=O)c2ccc[n+]([O-])c2)C1 (stereo not drawn)	2.3
CCN(CC)S(=O)(=O)c1ccc(C(=O)NCc2n[nH]c(=S)n2-c2ccc(Cl)c(Cl)c2)cc1	10.4
N#Cc1cc(-c2ccccc2)cnc1Sc1ccccc1	-0.515
CCOC(=O)C1(Cc2ccccc2C)CCCN(Cc2ccc(NC(C)=O)cc2)C1 (stereo not drawn)	11.5
CCCNC(=O)c1onc(CSc2ccc(Cl)cc2)c1C(=O)NCCC(C)C	-1.16
CCNC(=O)NC1c2ccccc2CSc2ccccc21.O (stereo not drawn)	12.7
O=C(Nc1cccnc1)c1cnc2ccccc2n1	12.1
C=CCn1c(SCC(=O)NCC(=O)OCC)nnc1-c1cccc(OC)c1	14
CC(C)(C)NCc1cc(Br)ccc1OCc1cccs1.Cl	-52.5
Cc1ccc(Oc2ncccc2COC(=O)Nc2ccccc2C)cc1	25.3
CC(=O)c1ccc(NC(=O)C(Cc2ccccc2)n2cccc2)cc1 (stereo not drawn)	1.67
Cc1nn2c(-c3cccc(NC(=O)CN4CCOCC4)c3)nnc2c2ccccc12	-22.6
COC(=O)C1=C(c2ccc(F)cc2OCc2ccccc2)C[C@@H]2CC[C@H]1N2C(=O)NCc1ccccc1Cl	12.3
C/C(=N/OCC(=O)Nc1ccc(C)cc1C)c1cccs1	-11.7

Compound	hERG current change (%, negative = inhibition) at 10uM [%]
O=c1nc2n(c3c4c(sc13)CCC4)CCC2	5.51
O=C1NC(=Nc2ccc(Cl)cc2)SC1Cc1cccc(Cl)c1Cl (stereo not drawn)	-9.15
COc1ccc(C(F)(F)F)cc1N/C=C/c1nnnn1-c1ccc2ccccc2c1	1.6
CCCCC(NS(=O)(=O)c1ccc(OC)cc1)C(=O)O (stereo not drawn)	-2.21
CCOC(=O)C(O)(c1ccc(NC(=O)NC)cc1)C(F)(F)F (stereo not drawn)	4.26
O=C(CCC(=O)Nc1ccc(F)cc1)N/N=C/c1ccccc1	11.7
CC(Sc1ccccn1)C(=O)Nc1ccccc1 (stereo not drawn)	4.37
Cc1ccc(S/C(=N\S(=O)(=O)c2ccc(Cl)cc2)c2ccccc2)cc1	11.5
CCn1c(-c2cccc(Cl)c2)n[nH]c1=S	9.71
O=C(NNC(=O)c1csc(-c2cccnc2)n1)Nc1ccc(Cl)cc1	27.2
O=C(Nc1ccccc1F)c1ccc(-c2cccc([N+](=O)[O-])c2)o1	20
CC1CCCC(C)N1CCCNC(=O)c1ccc2nc(N3CCOCC3)sc2c1 (stereo not drawn)	-10.3
CC(C)(C)NC(=O)C(=O)NCc1ccccn1	18.5
Cc1nnc(NC(=O)CSc2ccc(-c3ccc(Cl)cc3)nn2)s1	17
COc1ccccc1CNC(=O)CCNC(=O)N1CC(=O)Nc2ccccc21	16.4
COc1ccc(CN2CCNC(=O)C2CC(=O)NC2CCCC2)c(C)c1C (stereo not drawn)	5.26
COCCCN(C(=S)Nc1ccc(C)cc1Cl)C(C)c1ccncc1 (stereo not drawn)	-19
O=C(O)c1ccccc1C(=O)N(c1ccccc1)c1ccccc1	-2.55
CCC(=O)Nc1c2c(nn1-c1ccc(F)cc1)CS(=O)C2 (stereo not drawn)	5.41
Cc1cc(C(=O)NNC(=S)NC(C)c2ccccc2)cs1 (stereo not drawn)	-7.03
O=c1c2nnn(-c3ccccc3)c2ncn1C/C=C/c1ccccc1	19.5
CCN1CCN(c2ccc(NC(=O)CCc3c(C)nc4c(-c5ccccc5)c(C)nn4c3C)cc2)CC1	-20
COc1ccc(C2=NN(C(=O)CCC(=O)O)C(c3ccc([N+](=O)[O-])cc3)C2)cc1 (stereo not drawn)	10.2

Compound	hERG current change (%, negative = inhibition) at 10uM [%]
CC1(C)CC(=O)C=C(NCCCNC2CCCCC2)C1	12.4
COc1ccccc1CNC(=O)C1CCN(C(=O)[C@@H]2Cc3ccccc3CN2)CC1	-25.6
CC(=O)c1c(C)[nH]c(C(=O)Nc2cccc(S(=O)(=O)N3CCCCC3)c2)c1C	13.7
CCOc1ccc(/C=N/NC(=O)c2ccc(CSc3nc4ccccc4[nH]3)cc2)cc1	6.74
O=c1[nH]c(N2CCOCC2)nc2ncn(Cc3ccccc3)c12	6.6
O=C(NCCSc1c[nH]c2ccccc12)c1ccco1	-1.65
N#C/C(=C/Nc1ccccc1)c1ccsc1	7.85
C[C@]12CCC3C(CCC4=C/C(=N/OCC(=O)NC(CCC(=O)O)C(=O)O)CC[C@@]43C)C1CCC2O (stereo partly drawn)	14.3
O=C(COC(=O)CNS(=O)(=O)/C=C/c1ccccc1)Nc1cccc2ccccc12	14.6
CC(=O)NS(=O)(=O)c1ccc(NC(=S)NC(=O)Cc2ccccc2)cc1	9.41
CCCCN(CCCC)CCCNC(=O)C12CN(Cc3ccccc3)CC1C(c1cccc([N+](=O)[O-])c1)=NO2 (stereo not drawn)	-80.6
CCOc1ccc(NC(=O)CN2CCN(Cc3c(F)cccc3F)CC2)cc1	-75.3
Cc1cc(C)cc(NC(=S)N(CCCN2CCN(C)CC2)Cc2cccs2)c1	-63.3
CCOC(=O)c1c(C)[nH]c(C(=O)Cn2nnc(-c3ccc(Cl)cc3)n2)c1C	2
COCCn1c(COc2ccc(OC)cc2)nc2ccccc21	-14.3
O=C(O)c1cc(S(=O)(=O)N2CCOCC2)ccc1N1CCCCC1	23.4
CCOc1ccccc1N(C(=O)c1ccco1)C(C(=O)NC1CCCC1)c1cccnc1 (stereo not drawn)	-3.37
O=C(Nc1cc(=O)[nH]c2ncnn12)c1ccccc1Cl	1.15
O=C(CN1CCc2ccccc2C1)Nc1ccccc1C(F)(F)F.O=C(O)C(=O)O	10.6
CC(C)C(=O)Nc1nnc(S(=O)(=O)N2c3ccccc3CC2C)s1 (stereo not drawn)	13.4
CNC(=O)Nc1cccc(NC(=O)NC)n1	-2.6
CCOC(=O)N1CCN(C(=O)Cc2ccccc2OC)CC1	19.7
Cc1cc(/C=C2/NC(=O)N(c3ccccc3)C2=O)c(C)n1C(C)C	33.9

Compound	hERG current change (%, negative = inhibition) at 10uM [%]
COc1ccccc1-c1nnc(SCc2ccccn2)n1C	-10.2
Cc1cc(NC(=O)CC#N)n(-c2ccccc2)n1	21.3
COc1ccccc1NC(=O)CN1CCN(CC(=O)Nc2ccc(OCc3ccccc3)cc2)CC1	-25.1
Cc1ccccc1-c1nn(-c2ccccc2)cc1C(=O)NCC(c1ccco1)N1CCCC1 (stereo not drawn)	-14.3
CCOc1cc(CNC(C)C)c(Cl)cc1OCC(=O)NCCc1ccccc1	-16.4
CCCC(=O)NC(c1ccc(OC)c(OC)c1)c1cc(Cl)c2cccnc2c1O (stereo not drawn)	7.56
CC1CCC2(CC1)NC(=O)N(Cc1nnc(-c3cccs3)o1)C2=O (stereo not drawn)	-2.73
O=c1c2ccccc2c(/C=N/n2cnnc2)c(O)n1-c1ccccc1	-3.51
CN(C)c1ccc(/C=N/N(CCC#N)C2=NS(=O)(=O)c3ccccc32)cc1	19
CC(C)OC(=O)/C(=C/c1ccc(Br)cc1)NC(=O)c1ccco1	-32.9
O=C(NCCNc1ccnc2cc(Cl)ccc12)c1ccccc1F	-66.4
CCc1ccc[n+](-c2nc3ccccc3nc2C(=C=[N-])C#N)c1	-9.11
O=C(Nc1ccc(CN2CCCCC2)cc1)c1cccc(F)c1	-40
Cc1ccc(NC(=O)C(=O)NCCN2CCN(S(C)(=O)=O)CC2)cc1C	0.0768
O=C(NCCCN1CCCC1=O)C1CCN(S(=O)(=O)c2ccc(Cl)cc2)CC1	-8.8
O=C(O)CCNC1CCCCC1	16.2
CC(=O)c1ccc(NC(=O)CSc2ccc(-c3ccco3)nn2)cc1	4.76
COc1ccc(C2CC(=O)C(C=NCCO)=C(O)C2)cc1 (stereo not drawn)	3.22
Cc1ccccc1C(=O)N1CCN(c2ccc(NC(=O)c3cccs3)cc2)CC1	4.97
Cc1cc(N2CCN(c3ccccc3)CC2)nc(N2CCOCC2)n1	-44.9
O=C(O)CC(Cc1ccc(Cl)cc1)C(=O)Nc1ccc([N+](=O)[O-])cc1 (stereo not drawn)	14.5
